Measured values as given in PubChem BioAssay (Tox21).
Several values for one entry are separate records, joined by “and”; a condition that tells them apart may be missing. Equal values may be shown once. This list was built around the results that the source calls inconclusive (neither active nor inactive); the mix of calls is not that of the screen. For part of these data: Where the call is inconclusive, the potency comes from a doubtful curve fit. Activity calls are given as the source filed them. Unless noted, the call rests on the fitted dose curve; in most records, active means well fitted curve in the direction sought with a large enough effect in the repeat runs; inconclusive means weak or mixed curves; inactive means no such curve, though single readings can be large; an effect the other way counts as inactive or inconclusive.

Legend:
[1] = qHTS assay to identify small molecule that activate the aryl hydrocarbon receptor (AhR) signaling pathway - cell viability counter screen (AID 743086); further: potency means the concentration at half of the fitted maximal effect; nearly all actives have a fitted effect of over 45% in size
How it was run: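 HepG2-AhR-luc (HG2L7.5c1) cells, 4000/well, were preincubated 5 h at 37C, exposed to compound in qHTS format for 24 hr at 37C, then given CellTiter-Fluor for 30 min; viability was read as fluorescence in the reporter wells.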

[2] = biological target: Peroxisome proliferator-activated receptor gamma (Homo sapiens) (UniProt P37231); test: qHTS assay to identify small molecule agonists of the peroxisome proliferator-activated receptor gamma (PPARg) signaling pathway (AID 743094; active means well fitted activation curve with a large enough effect in the signal ratio in the repeat runs, not every such curve was filed as active; inconclusive means weak or mixed curves, or effect the other way; inactive means no such curve, though single readings can be large or run the other way; the % refers to the signal ratio; further: potency means the concentration at half of the fitted maximal effect; on activation: on the % scale 0 is the no-effect control and ±100 the full control effect); conditions: HEK293H PPARg-UAS-bla, beta-lactamase FRET ratio, 17 h; activation: at 57 µM (top of the series) unless noted
How it was run: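 HEK293H PPARg-bla cells, 5 h settle at 37C/5% CO2; compound (DMSO) 17 h, 37C; B/G FRET substrate 1 h RT; fluorescence intensity read-out. qHTS format.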

[3] = biological target: Peroxisome proliferator-activated receptor gamma (Homo sapiens) (UniProt P37231); test: qHTS assay to identify small molecule antagonists of the peroxisome proliferator-activated receptor gamma (PPARg) signaling pathway (AID 743191; calls by dose curve; further: potency means the concentration at half of the fitted maximal effect; nearly all actives have a fitted effect of over 30% in size); conditions: HEK293H PPARg-UAS-bla, beta-lactamase ratio, antagonist, 17 h; ratio activity, negative = inhibition: at 62.6 µM (top of the series) unless noted
How it was run: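 GeneBLAzer PPARg UAS-bla HEK293H cells carrying a UAS-driven beta-lactamase reporter were plated at 3000 cells/well, preincubated 5 h at 37C, then given compound for 17 h at 37C; LiveBLAzer B/G FRET substrate was read after 1 h at room temperature.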

[4] = qHTS assay to identify small molecule antagonists of the peroxisome proliferator-activated receptor gamma (PPARg) signaling pathway - cell viability counter screen (AID 743194); conditions: PPARg-bla HEK293H viability, CellTiter-Glo luminescence, 17 h, co-treated with 50 nM rosiglitazone; activity change, negative = cytotoxicity: at 62.6 µM (top of the series) unless noted; further: potency means the concentration at half of the fitted maximal effect; nearly all actives have a fitted effect of over 55% in size
How it was run: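 PPARg-UAS-bla HEK293H cells were plated, rested 5 h at 37 C, then treated with compounds plus rosiglitazone (50 nM final) for 17 h at 37 C; viability was then read by CellTiter-Glo luminescence after 30 min at room temperature.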

[5] = qHTS assay for small molecule agonists of the antioxidant response element (ARE) signaling pathway (AID 743202; active means well fitted activation curve with a large enough effect in the signal ratio in the repeat runs, not every such curve was filed as active; inconclusive means weak or mixed curves, or effect the other way; inactive means no such curve, though single readings can be large or run the other way; the % refers to the signal ratio; further: potency means the concentration at half of the fitted maximal effect); conditions: HepG2 ARE-bla reporter, beta-lactamase FRET, 16 h; activation: at 73.3 µM (top of the series) unless noted
How it was run: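 Following a 16 h, 37 C exposure of reporter HepG2 cells (ARE-driven beta-lactamase, 2,000 cells/well) to compounds, FRET substrate was applied for 2 h at room temperature and fluorescence intensity recorded.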

[6] = qHTS assay for small molecule activators of the heat shock response signaling pathway - cell viability counter screen (AID 743209); conditions: HSE-bla HeLa viability, CellTiter-Glo luminescence, 5 h; activity change, negative = cytotoxicity: at 62.6 µM (top of the series) unless noted; further: potency means the concentration at half of the fitted maximal effect; nearly all actives have a fitted effect of over 50% in size
How it was run: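 HSE-bla HeLa; 1500 cells/well; overnight 37 C, 5% CO2; compound 5 h 37 C; LiveBLAzer B/G substrate 2.5 h RT; CellTiter-Glo 30 min RT; luminescence.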

[7] = qHTS assay for small molecule activators of the heat shock response signaling pathway (AID 743210; active means well fitted activation curve with a large enough effect in the signal ratio in the repeat runs, with a control signal flat, not every such curve was filed as active; inconclusive means weak or mixed curves; the % refers to the signal ratio; further: potency means the concentration at half of the fitted maximal effect); conditions: HeLa HSE-bla reporter, beta-lactamase ratio, 5 h; activation: at 62.6 µM (top of the series)
How it was run: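 Heat shock element–beta-lactamase HeLa reporter cells; qHTS with compounds for 5 h at 37 C; detection by FRET substrate fluorescence after 2.5 h at RT.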

[8] = biological target: Peroxisome proliferator-activated receptor delta (Homo sapiens) (UniProt Q03181); test: qHTS assay to identify small molecule agonists of the peroxisome proliferator-activated receptor delta (PPARd) signaling pathway (AID 743212; calls by dose curve; further: potency means the concentration at half of the fitted maximal effect); conditions: HEK293H PPARd-UAS-bla, beta-lactamase FRET ratio, 17 h; activation: at 62.6 µM (top of the series) unless noted
How it was run: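 Beta-lactamase reporter read by fluorescence (LiveBLAzer B/G FRET, 2 h, room temperature). Test agents, in DMSO, incubated at 37 C with PPARd-bla HEK293H cells.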

[9] = qHTS assay to identify small molecule antagonists of the peroxisome proliferator-activated receptor delta (PPARd) signaling pathway - cell viability counter screen (AID 743213); conditions: PPARd-bla HEK293H viability, CellTiter-Glo luminescence, 17 h; viability change, negative = cytotoxic: at 62 µM (top of the series) unless noted; further: potency means the concentration at half of the fitted maximal effect; nearly all actives have a fitted effect of over 50% in size
How it was run: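 Luminescence from CellTiter-Glo, added after the bla read and incubated 30 min at room temperature, gives viability of HEK293H PPARd-bla cells exposed to compounds for 17 h at 37 C with 300 nM L165041.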

[10] = biological target: Peroxisome proliferator-activated receptor delta (Homo sapiens) (UniProt Q03181); test: qHTS assay to identify small molecule antagonists of the peroxisome proliferator-activated receptor delta (PPARd) signaling pathway (AID 743215; active means well fitted inhibition curve with a large enough effect in the signal ratio in the repeat runs, not every such curve was filed as active; inconclusive means weak or mixed curves, or effect the other way; inactive means no such curve, though single readings can be large or run the other way; the % refers to the signal ratio;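 further: cells stimulated with agonist L165041 at 300 nM final during compound exposure; potency means the concentration at half of the fitted maximal effect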); conditions: HEK293H PPARd-UAS-bla, beta-lactamase FRET ratio, antagonist, 17 h; ratio activity, negative = inhibition: at 62 µM (top of the series) unless noted
How it was run: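 HEK293H GeneBLAzer PPARd UAS-bla reporter cells; cpd + L165041 300 nM final, 17 h 37 C; LiveBLAzer B/G FRET substrate 2 h RT; fluorescence intensity read-out. Antagonist mode.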

[11] = biological target: Bile acid receptor (Homo sapiens) (UniProt Q96RI1); test: qHTS assay to identify small molecule antagonists of the farnesoid-X-receptor (FXR) signaling pathway (AID 743217; active means well fitted inhibition curve with a large enough effect in the signal ratio in the repeat runs, not every such curve was filed as active; inconclusive means weak or mixed curves, or effect the other way; inactive means no such curve, though single readings can be large or run the other way; the % refers to the signal ratio; further: potency means the concentration at half of the fitted maximal effect); conditions: HEK293T FXR-UAS-bla, beta-lactamase ratio, CDCA-stimulated, 16 h; activity change, negative = inhibition: at 62.6 µM (top of the series) unless noted
How it was run: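 Read-out: beta-lactamase FRET fluorescence (LiveBLAzer B/G substrate, 2 h, room temperature) in GeneBLAzer FXR-UAS-bla HEK 293T cells. Compounds were co-dosed with 50 uM chenodeoxycholic acid (final) and incubated 16 h at 37 °C.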

[12] = qHTS assay to identify small molecule agonists of the farnesoid-X-receptor (FXR) signaling pathway - cell viability counter screen (AID 743218); conditions: FXR-bla HEK293T viability, CellTiter-Glo luminescence, 16 h; viability change, negative = cytotoxic: at 62.6 µM (top of the series) unless noted; further: potency means the concentration at half of the fitted maximal effect; nearly all actives have a fitted effect of over 45% in size
How it was run: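 Luminescence from CellTiter-Glo, read after 30 min at RT, reports viability of GeneBLAzer FXR-UAS-bla HEK 293T cells treated 16 h with compounds in the wells used for the beta-lactamase reporter.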

[13] = biological target: Bile acid receptor (Homo sapiens) (UniProt Q96RI1); test: qHTS assay to identify small molecule agonists of the farnesoid-X-receptor (FXR) signaling pathway (AID 743220; active means well fitted activation curve with a large enough effect in the signal ratio in the repeat runs, not every such curve was filed as active; inconclusive means weak or mixed curves, or effect the other way; the % refers to the signal ratio; further: potency means the concentration at half of the fitted maximal effect); conditions: HEK293T FXR-UAS-bla, beta-lactamase FRET ratio, 16 h; activation: at 62.6 µM (top of the series) unless noted
How it was run: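 FXR-UAS-bla HEK 293T cells carrying a UAS-driven beta-lactamase reporter were plated for 5 h at 37C/5% CO2, then exposed to DMSO-dissolved Tox21 10K compounds for 16 h at 37C. A LiveBLAzer B/G FRET substrate was loaded for 2 h at room temperature before fluorescence reading.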

[14] = biological target: Vitamin D3 receptor (Homo sapiens) (UniProt P11473); test: qHTS assay to identify small molecule antagonists of the vitamin D receptor (VDR) signaling pathway (AID 743223; active means well fitted inhibition curve with a large enough effect in the signal ratio in the repeat runs, not every such curve was filed as active; inconclusive means weak or mixed curves, or effect the other way; inactive means no such curve, though single readings can be large or run the other way; the % refers to the signal ratio; further: potency means the concentration at half of the fitted maximal effect; on activity change, negative = inhibition: on the % scale 0 is the no-effect control and ±100 the full control effect); conditions: VDR-UAS-bla HEK293T, beta-lactamase FRET ratio, 16 h; activity change, negative = inhibition: at 61 µM (top of the series) unless noted
How it was run: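 VDR-bla cells were plated, incubated 4 h at 37C, then given compound and 1alpha,25-dihydroxyvitamin D3 (3 nM final). After 16 h at 37C, LiveBLAzer B/G FRET substrate was added for 2 h at room temperature and fluorescence read.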

[15] = qHTS assay to identify small molecule antagonists of the vitamin D receptor (VDR) signaling pathway - cell viability counter screen (AID 743225); conditions: VDR-bla HEK293T viability, CellTiter-Glo luminescence, 16 h; viability change, negative = cytotoxic: at 61 µM (top of the series) unless noted; further: potency means the concentration at half of the fitted maximal effect; nearly all actives have a fitted effect of over 50% in size
How it was run: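 VDR-bla HEK 293T cells, 4 h pre-incubation at 37C, then compound plus 1-alpha,25-dihydroxyvitamin D3 (3 nM final) for 16 h. After the beta-lactamase FRET read, CellTiter-Glo was added to the same wells; luminescence after 30 min at room temperature.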

[16] = qHTS assay to identify small molecule antagonists of the farnesoid-X-receptor (FXR) signaling pathway - cell viability counter screen (AID 743221; active means well fitted cell-killing curve with a large enough effect in the repeat runs, not every such curve was filed as active; inconclusive means weak or mixed curves, or effect the other way; inactive means no such curve, though single readings can be large or run the other way; further: potency means the concentration at half of the fitted maximal effect; nearly all actives have a fitted effect of over 50% in size); conditions: FXR-bla HEK293T viability, CellTiter-Glo luminescence, 16 h; activity change, negative = cytotoxicity: at 62.6 µM (top of the series)
How it was run: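 FXR-UAS-bla HEK 293T cells were treated with test compounds plus chenodeoxycholic acid (50 uM final) for 16 h at 37 C. Cell viability in the same wells was then read as CellTiter-Glo luminescence after 30 min at room temperature.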

[17] = qHTS assay for small molecule agonists of the antioxidant response element (ARE) signaling pathway - cell viability counter screen (AID 743203; calls by dose curve; further: potency means the concentration at half of the fitted maximal effect; nearly all actives have a fitted effect of over 55% in size); conditions: ARE-bla HepG2 viability, CellTiter-Glo luminescence, 16 h; viability change, negative = cytotoxic: at 73.3 µM (top of the series)
How it was run: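 Luminescence read-out (CellTiter-Glo, 30 min at room temperature) measured cell viability in the same wells as the ARE beta-lactamase reporter. HepG2 ARE-bla cells were treated with compounds for 16 hrs at 37C/5% CO2.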

[18] = biological target: Vitamin D3 receptor (Homo sapiens) (UniProt P11473); test: qHTS assay to identify small molecule agonists of the vitamin D receptor (VDR) signaling pathway (AID 743222; calls by dose curve; further: on the % scale 0 is the no-effect control and ±100 the full control effect); conditions: HEK293T VDR-UAS-bla, beta-lactamase FRET ratio, 16 h; activation: at 63.5 µM (top of the series) unless noted
How it was run: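 Beta-lactamase reporter readout (LiveBLAzer B/G FRET, 2 h RT) in VDR-bla cells after 16 h compound treatment at 37C, 5% CO2; cells pre-incubated 4 h before pin transfer of DMSO solutions.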
Tags describe the fitted curve by direction and shape or compound fluorescence and quenching.

Sequence of UniProt Q03181 (Q03181 whole entry, looked up): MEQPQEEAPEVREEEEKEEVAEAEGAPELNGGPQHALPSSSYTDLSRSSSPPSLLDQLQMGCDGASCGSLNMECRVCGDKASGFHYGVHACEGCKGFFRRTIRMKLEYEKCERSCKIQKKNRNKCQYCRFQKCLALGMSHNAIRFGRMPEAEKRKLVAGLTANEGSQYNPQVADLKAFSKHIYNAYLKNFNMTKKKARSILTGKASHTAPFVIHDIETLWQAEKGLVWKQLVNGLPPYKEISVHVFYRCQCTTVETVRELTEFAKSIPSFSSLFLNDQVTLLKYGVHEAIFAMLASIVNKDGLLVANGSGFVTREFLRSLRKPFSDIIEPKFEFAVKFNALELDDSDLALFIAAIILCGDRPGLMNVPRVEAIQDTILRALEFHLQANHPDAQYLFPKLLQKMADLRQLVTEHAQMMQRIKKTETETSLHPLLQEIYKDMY
Sequence of UniProt P37231 (P37231 whole entry, looked up): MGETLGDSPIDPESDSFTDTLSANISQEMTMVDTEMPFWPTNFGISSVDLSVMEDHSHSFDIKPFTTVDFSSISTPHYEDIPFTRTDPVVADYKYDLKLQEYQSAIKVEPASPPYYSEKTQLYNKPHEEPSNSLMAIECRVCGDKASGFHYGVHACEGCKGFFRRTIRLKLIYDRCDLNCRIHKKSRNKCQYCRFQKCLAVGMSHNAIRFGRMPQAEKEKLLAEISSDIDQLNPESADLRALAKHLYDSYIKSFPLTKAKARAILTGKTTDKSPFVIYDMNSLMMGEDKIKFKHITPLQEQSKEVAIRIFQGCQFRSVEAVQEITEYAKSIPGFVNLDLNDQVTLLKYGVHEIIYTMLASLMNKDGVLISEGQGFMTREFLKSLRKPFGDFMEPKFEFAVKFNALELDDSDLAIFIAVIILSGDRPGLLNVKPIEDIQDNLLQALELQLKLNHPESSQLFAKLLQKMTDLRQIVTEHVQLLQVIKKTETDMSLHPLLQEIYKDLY
Sequence of UniProt P11473 (P11473 whole entry, looked up): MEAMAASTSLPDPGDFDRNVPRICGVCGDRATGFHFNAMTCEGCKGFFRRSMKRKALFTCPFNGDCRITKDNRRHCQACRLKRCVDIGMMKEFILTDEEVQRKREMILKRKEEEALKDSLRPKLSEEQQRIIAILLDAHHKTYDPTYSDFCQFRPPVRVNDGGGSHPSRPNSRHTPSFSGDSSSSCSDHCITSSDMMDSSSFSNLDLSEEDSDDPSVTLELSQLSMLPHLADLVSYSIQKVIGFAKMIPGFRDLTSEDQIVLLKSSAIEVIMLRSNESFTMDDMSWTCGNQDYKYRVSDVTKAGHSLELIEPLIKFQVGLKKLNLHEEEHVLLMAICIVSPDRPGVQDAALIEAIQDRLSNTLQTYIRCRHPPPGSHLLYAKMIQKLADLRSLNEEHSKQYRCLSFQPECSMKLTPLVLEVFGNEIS
Sequence of UniProt Q96RI1 (Q96RI1 whole entry, looked up): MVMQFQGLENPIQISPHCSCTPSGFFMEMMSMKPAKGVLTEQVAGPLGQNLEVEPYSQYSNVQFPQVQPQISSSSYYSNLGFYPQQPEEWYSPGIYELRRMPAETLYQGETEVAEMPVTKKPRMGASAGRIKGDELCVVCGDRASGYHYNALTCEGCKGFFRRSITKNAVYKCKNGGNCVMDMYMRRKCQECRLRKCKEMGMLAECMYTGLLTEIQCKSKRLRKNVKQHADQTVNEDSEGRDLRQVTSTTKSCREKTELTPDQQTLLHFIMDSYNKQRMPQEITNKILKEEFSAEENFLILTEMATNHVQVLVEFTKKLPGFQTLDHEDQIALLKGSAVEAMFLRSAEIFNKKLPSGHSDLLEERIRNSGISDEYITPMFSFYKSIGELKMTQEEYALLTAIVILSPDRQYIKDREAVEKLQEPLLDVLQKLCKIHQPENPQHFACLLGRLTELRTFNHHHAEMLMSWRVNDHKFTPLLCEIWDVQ

CN1CCN(c2ccccc2/C=C2\SCCN(c3ccc(Cl)c(Cl)c3)C2=O)CC1
active: Potency [4] 49 µM | Potency [6] 54.9 µM | Potency [9] 24.5 µM | Potency [10] 21.9 µM | Potency [12] 43.6 µM | Potency [15] 43.6 µM
inconclusive: Potency [1] 6.86 µM [falling, full curve, poor fit] | Potency [2] 6.92 µM [rising, full curve, poor fit] | Potency [3] 6.16 µM [rising, partial curve] | Potency [5] 43.3 µM [falling, partial curve] | Potency [7] 57.1 µM | Potency [8] 61.6 µM [single point] | Potency [11] 43.6 µM [partial curve] | Potency [13] 61.6 µM | Potency [14] 54.9 µM [partial curve]

CCCCCCCCCCCCc1ccccc1O
inconclusive: Potency [1] 77 µM [falling, single point] | Potency [2] 15.3 µM [activator, partial curve] and 5.49 µM [activator, full curve, poor fit] | Potency [3] 54.2 µM [cytotoxic, single point] and 54.9 µM [cytotoxic, single point] | Potency [5] 53.8 µM [falling, partial curve] and 48.6 µM [falling, partial curve] | Potency [7] 31.7 µM and 34.7 µM | Potency [8] 54.2 µM and 54.9 µM | Potency [10] 24.2 µM [cytotoxic, full curve] and 54.9 µM [cytotoxic, partial curve]
active: Potency [4] 48.3 µM and 17.4 µM | Potency [9] 24.2 µM and 21.9 µM | Potency [11] 49 µM | Potency [12] 17.2 µM and 30.9 µM | Potency [16] 43.1 µM and 43.6 µM | Potency [14] 15.3 µM and 19.5 µM | Potency [15] 17.2 µM and 21.9 µM

S=P(N1CC1)(N1CC1)N1CC1
inconclusive: Potency [1] 72.3 µM [falling, partial curve, poor fit] | activation [2] -16.1% [at 78.9 µM] | Potency [3] 65 µM [inhibitor] | Potency [4] 18.3 µM [rising, full curve, poor fit] | Potency [5] 32.3 µM | Potency [17] 0.229 µM [cytotoxic, single point] | Potency [7] 45.9 µM [activator, partial curve] | Potency [9] 51.6 µM [cytotoxic, partial curve, poor fit] | Potency [11] 51.6 µM [inhibitor, partial curve, poor fit] | Potency [12] 5.79 µM [rising, partial curve, poor fit] | activation [18] -0.66% [at 81.1 µM] | activity change, negative = inhibition [14] -15.7% [at 78.8 µM] | Potency [15] 32.6 µM [rising, partial curve, poor fit]
